{"source": "patent US20240076343A1", "binders": {"B1": {"name": "1H3-hIgG1-L6-hIL-2 (E95K) (protein)", "heavy": "EVQLVESGGGLVQPGRSLKLSCAVSGFTFSDYAMAWVRQAPKKGLEWVATISYDGSRTYYRDSVKGRFTISRDNAKITLYLQMDSLRSEDTATYYCARHGSGYFDYWGQGVMVTVSS[not shown - about 450 residues with a human IgG1 Fc and changes]", "light": "DTVLTQSPALAVSPGERVTISCRASESVRTGVHWYQQKPGQQPKLLIYGASNLESGVPARFSGSGSGTDFTLTIDPVEADDTATYFCQQSWNDPFTFGSGTKLEIKRTVAAPSVFIFPPSDEQLKSGTASVVCLLNNFYPREAKVQWKVDNALQSGNSQESVTEQDSKDSTYSLSSTLTLSKADYEKHKVYACEVTHQGLSSPVTKSFNRGEC"}, "B2": {"name": "1H3-hIgG1-L6-hIL-2 (D20Y/I92R) (protein)", "heavy": "EVQLVESGGGLVQPGRSLKLSCAVSGFTFSDYAMAWVRQAPKKGLEWVATISYDGSRTYYRDSVKGRFTISRDNAKITLYLQMDSLRSEDTATYYCARHGSGYFDYWGQGVMVTVSS[not shown - about 450 residues with a human IgG1 Fc and changes]", "light": "B1 light"}, "B3": {"name": "1H3-hIgG1-L6-hIL-2 (D20Y/E95R) (protein)", "heavy": "EVQLVESGGGLVQPGRSLKLSCAVSGFTFSDYAMAWVRQAPKKGLEWVATISYDGSRTYYRDSVKGRFTISRDNAKITLYLQMDSLRSEDTATYYCARHGSGYFDYWGQGVMVTVSS[not shown - about 450 residues with a human IgG1 Fc and changes]", "light": "B1 light"}, "B4": {"name": "1H3-hIgG1-L6-hIL-2 (D20Y/E95A) (protein)", "heavy": "EVQLVESGGGLVQPGRSLKLSCAVSGFTFSDYAMAWVRQAPKKGLEWVATISYDGSRTYYRDSVKGRFTISRDNAKITLYLQMDSLRSEDTATYYCARHGSGYFDYWGQGVMVTVSS[not shown - about 450 residues with a human IgG1 Fc and changes]", "light": "B1 light"}, "B5": {"name": "1H3-hIgG1-L6-hIL-2 (F42R/D20A) (protein)", "heavy": "EVQLVESGGGLVQPGRSLKLSCAVSGFTFSDYAMAWVRQAPKKGLEWVATISYDGSRTYYRDSVKGRFTISRDNAKITLYLQMDSLRSEDTATYYCARHGSGYFDYWGQGVMVTVSS[not shown - about 450 residues with a human IgG1 Fc and changes]", "light": "B1 light"}, "B6": {"name": "1H3-hIgG1-L6-hIL-2 (F42H/D20A) (protein)", "heavy": "EVQLVESGGGLVQPGRSLKLSCAVSGFTFSDYAMAWVRQAPKKGLEWVATISYDGSRTYYRDSVKGRFTISRDNAKITLYLQMDSLRSEDTATYYCARHGSGYFDYWGQGVMVTVSS[not shown - about 450 residues with a human IgG1 Fc and changes]", "light": "B1 light"}, "B7": {"name": "1H3-hIgG1-L6-hIL-2 (Y45R/D20A) (protein)", "heavy": "EVQLVESGGGLVQPGRSLKLSCAVSGFTFSDYAMAWVRQAPKKGLEWVATISYDGSRTYYRDSVKGRFTISRDNAKITLYLQMDSLRSEDTATYYCARHGSGYFDYWGQGVMVTVSS[not shown - about 450 residues with a human IgG1 Fc and changes]", "light": "B1 light"}, "B8": {"name": "1H3-hIgG1-L6-hIL-2 (Y45K/D20A) (protein)", "heavy": "EVQLVESGGGLVQPGRSLKLSCAVSGFTFSDYAMAWVRQAPKKGLEWVATISYDGSRTYYRDSVKGRFTISRDNAKITLYLQMDSLRSEDTATYYCARHGSGYFDYWGQGVMVTVSS[not shown - about 450 residues with a human IgG1 Fc and changes]", "light": "B1 light"}, "B9": {"name": "1H3-hIgG1-L6-hIL-2 (R38T/D20A) (protein)", "heavy": "EVQLVESGGGLVQPGRSLKLSCAVSGFTFSDYAMAWVRQAPKKGLEWVATISYDGSRTYYRDSVKGRFTISRDNAKITLYLQMDSLRSEDTATYYCARHGSGYFDYWGQGVMVTVSS[not shown - about 450 residues with a human IgG1 Fc and changes]", "light": "B1 light"}, "B10": {"name": "1H3-hIgG1-L6-hIL-2 (R38W/D20A) (protein)", "heavy": "EVQLVESGGGLVQPGRSLKLSCAVSGFTFSDYAMAWVRQAPKKGLEWVATISYDGSRTYYRDSVKGRFTISRDNAKITLYLQMDSLRSEDTATYYCARHGSGYFDYWGQGVMVTVSS[not shown - about 450 residues with a human IgG1 Fc and changes]", "light": "B1 light"}, "B11": {"name": "1H3-hIgG1-L6-hIL-2 (R38Y/D20A) (protein)", "heavy": "EVQLVESGGGLVQPGRSLKLSCAVSGFTFSDYAMAWVRQAPKKGLEWVATISYDGSRTYYRDSVKGRFTISRDNAKITLYLQMDSLRSEDTATYYCARHGSGYFDYWGQGVMVTVSS[not shown - about 450 residues with a human IgG1 Fc and changes]", "light": "B1 light"}, "B12": {"name": "1H3-hIgG1-L6-hIL-2 (E61A/D20A) (protein)", "heavy": "EVQLVESGGGLVQPGRSLKLSCAVSGFTFSDYAMAWVRQAPKKGLEWVATISYDGSRTYYRDSVKGRFTISRDNAKITLYLQMDSLRSEDTATYYCARHGSGYFDYWGQGVMVTVSS[not shown - about 450 residues with a human IgG1 Fc and changes]", "light": "B1 light"}, "B13": {"name": "1H3-hIgG1-L6-hIL-2 (E62A/D20A) (protein)", "heavy": "EVQLVESGGGLVQPGRSLKLSCAVSGFTFSDYAMAWVRQAPKKGLEWVATISYDGSRTYYRDSVKGRFTISRDNAKITLYLQMDSLRSEDTATYYCARHGSGYFDYWGQGVMVTVSS[not shown - about 450 residues with a human IgG1 Fc and changes]", "light": "B1 light"}, "B14": {"name": "1H3-hIgG1-L6-hIL-2 (E62Y/D20A) (protein)", "heavy": "EVQLVESGGGLVQPGRSLKLSCAVSGFTFSDYAMAWVRQAPKKGLEWVATISYDGSRTYYRDSVKGRFTISRDNAKITLYLQMDSLRSEDTATYYCARHGSGYFDYWGQGVMVTVSS[not shown - about 450 residues with a human IgG1 Fc and changes]", "light": "B1 light"}, "B15": {"name": "1H3-hIgG1-L6-hIL-2 (L72D/D20A) (protein)", "heavy": "EVQLVESGGGLVQPGRSLKLSCAVSGFTFSDYAMAWVRQAPKKGLEWVATISYDGSRTYYRDSVKGRFTISRDNAKITLYLQMDSLRSEDTATYYCARHGSGYFDYWGQGVMVTVSS[not shown - about 450 residues with a human IgG1 Fc and changes]", "light": "B1 light"}, "B16": {"name": "1H3-hIgG1-L6-hIL-2 (L72H/D20A) (protein)", "heavy": "EVQLVESGGGLVQPGRSLKLSCAVSGFTFSDYAMAWVRQAPKKGLEWVATISYDGSRTYYRDSVKGRFTISRDNAKITLYLQMDSLRSEDTATYYCARHGSGYFDYWGQGVMVTVSS[not shown - about 450 residues with a human IgG1 Fc and changes]", "light": "B1 light"}, "B17": {"name": "1H3-hIgG1-L6-hIL-2 (L72R/D20A) (protein)", "heavy": "EVQLVESGGGLVQPGRSLKLSCAVSGFTFSDYAMAWVRQAPKKGLEWVATISYDGSRTYYRDSVKGRFTISRDNAKITLYLQMDSLRSEDTATYYCARHGSGYFDYWGQGVMVTVSS[not shown - about 450 residues with a human IgG1 Fc and changes]", "light": "B1 light"}, "B18": {"name": "1H3-hIgG1-L6-hIL-2 (F42D/I92D) (protein)", "heavy": "EVQLVESGGGLVQPGRSLKLSCAVSGFTFSDYAMAWVRQAPKKGLEWVATISYDGSRTYYRDSVKGRFTISRDNAKITLYLQMDSLRSEDTATYYCARHGSGYFDYWGQGVMVTVSS[not shown - about 450 residues with a human IgG1 Fc and changes]", "light": "B1 light"}}, "data": [{"molecular_target": "high-affinity hIL-2 receptor (IL-2Rαβγ) on NK-92 cells (human) (UniProt P01589)", "sequence (P01589 22-272, chain 1 of 3)": "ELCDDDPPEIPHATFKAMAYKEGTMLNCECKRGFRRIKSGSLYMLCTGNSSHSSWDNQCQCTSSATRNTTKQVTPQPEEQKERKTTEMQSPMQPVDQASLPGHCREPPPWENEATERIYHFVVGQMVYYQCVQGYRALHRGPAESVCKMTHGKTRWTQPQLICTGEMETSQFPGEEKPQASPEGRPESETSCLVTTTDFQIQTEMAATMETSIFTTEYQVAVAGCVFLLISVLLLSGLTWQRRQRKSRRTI", "sequence (chain, as listed by the source, chain 2 of 3)": "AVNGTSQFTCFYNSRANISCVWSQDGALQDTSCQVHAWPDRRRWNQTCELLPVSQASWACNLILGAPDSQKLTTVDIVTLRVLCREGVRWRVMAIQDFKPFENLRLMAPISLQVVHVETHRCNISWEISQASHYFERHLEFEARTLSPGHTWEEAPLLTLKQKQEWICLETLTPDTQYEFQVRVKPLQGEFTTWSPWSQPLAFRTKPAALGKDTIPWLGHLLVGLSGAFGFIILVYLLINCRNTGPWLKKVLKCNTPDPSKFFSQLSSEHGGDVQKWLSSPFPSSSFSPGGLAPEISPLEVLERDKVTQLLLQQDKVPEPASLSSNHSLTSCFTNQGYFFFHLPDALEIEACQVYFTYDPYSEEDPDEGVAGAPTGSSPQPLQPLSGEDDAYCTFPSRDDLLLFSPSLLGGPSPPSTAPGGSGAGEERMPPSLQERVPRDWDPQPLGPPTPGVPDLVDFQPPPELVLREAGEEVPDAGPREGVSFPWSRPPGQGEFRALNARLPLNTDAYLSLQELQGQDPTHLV", "sequence (chain, as listed by the source, chain 3 of 3)": "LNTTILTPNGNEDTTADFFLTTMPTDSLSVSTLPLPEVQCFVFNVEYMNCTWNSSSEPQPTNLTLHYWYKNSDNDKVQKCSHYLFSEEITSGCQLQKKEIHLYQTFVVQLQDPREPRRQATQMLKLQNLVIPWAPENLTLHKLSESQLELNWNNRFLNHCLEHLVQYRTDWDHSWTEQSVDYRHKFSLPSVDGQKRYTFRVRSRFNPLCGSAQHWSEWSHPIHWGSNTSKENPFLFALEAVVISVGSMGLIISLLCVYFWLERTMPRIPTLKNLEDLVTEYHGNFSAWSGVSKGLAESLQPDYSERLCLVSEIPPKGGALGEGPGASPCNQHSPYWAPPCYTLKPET", "assay": "cell-based or functional assay", "units": {"Fold change from hIL-2 (NK-92)": "fold"}, "values": [{"binder": "B1", "Fold change from hIL-2 (NK-92)": 1}, {"binder": "B2", "Fold change from hIL-2 (NK-92)": 12}, {"binder": "B3", "Fold change from hIL-2 (NK-92)": 12}, {"binder": "B4", "Fold change from hIL-2 (NK-92)": 11}, {"binder": "B5", "Fold change from hIL-2 (NK-92)": 10}, {"binder": "B6", "Fold change from hIL-2 (NK-92)": 12}, {"binder": "B7", "Fold change from hIL-2 (NK-92)": 11}, {"binder": "B8", "Fold change from hIL-2 (NK-92)": 11}, {"binder": "B9", "Fold change from hIL-2 (NK-92)": 13}, {"binder": "B10", "Fold change from hIL-2 (NK-92)": 14}, {"binder": "B11", "Fold change from hIL-2 (NK-92)": 14}, {"binder": "B12", "Fold change from hIL-2 (NK-92)": 14}, {"binder": "B13", "Fold change from hIL-2 (NK-92)": 14}, {"binder": "B14", "Fold change from hIL-2 (NK-92)": 14}, {"binder": "B15", "Fold change from hIL-2 (NK-92)": 14}, {"binder": "B16", "Fold change from hIL-2 (NK-92)": 14}, {"binder": "B17", "Fold change from hIL-2 (NK-92)": 10}, {"binder": "B18", "Fold change from hIL-2 (NK-92)": 12}]}, {"molecular_target": "intermediate affinity hIL-2 receptor complex (IL-2Rβγ) on TF1+IL-2Rβ cells (human) (UniProt P14784)", "sequence (P14784 27-551, chain 1 of 2)": "as the sequence (chain, as listed by the source, chain 2 of 3) above", "sequence (chain, as listed by the source, chain 2 of 2)": "as the sequence (chain, as listed by the source, chain 3 of 3) above", "assay": "cell-based or functional assay", "units": {"Fold change from hIL-2 (TF1 + IL-2Rβ)": "fold"}, "values": [{"binder": "B1", "Fold change from hIL-2 (TF1 + IL-2Rβ)": 1}, {"binder": "B2", "Fold change from hIL-2 (TF1 + IL-2Rβ)": 5}, {"binder": "B3", "Fold change from hIL-2 (TF1 + IL-2Rβ)": 5}, {"binder": "B4", "Fold change from hIL-2 (TF1 + IL-2Rβ)": 5}, {"binder": "B5", "Fold change from hIL-2 (TF1 + IL-2Rβ)": 2}, {"binder": "B6", "Fold change from hIL-2 (TF1 + IL-2Rβ)": 2}, {"binder": "B7", "Fold change from hIL-2 (TF1 + IL-2Rβ)": 1}, {"binder": "B8", "Fold change from hIL-2 (TF1 + IL-2Rβ)": 2}, {"binder": "B9", "Fold change from hIL-2 (TF1 + IL-2Rβ)": 3}, {"binder": "B10", "Fold change from hIL-2 (TF1 + IL-2Rβ)": 2}, {"binder": "B11", "Fold change from hIL-2 (TF1 + IL-2Rβ)": 3}, {"binder": "B12", "Fold change from hIL-2 (TF1 + IL-2Rβ)": 2}, {"binder": "B13", "Fold change from hIL-2 (TF1 + IL-2Rβ)": 2}, {"binder": "B14", "Fold change from hIL-2 (TF1 + IL-2Rβ)": 3}, {"binder": "B15", "Fold change from hIL-2 (TF1 + IL-2Rβ)": 2}, {"binder": "B16", "Fold change from hIL-2 (TF1 + IL-2Rβ)": 3}, {"binder": "B17", "Fold change from hIL-2 (TF1 + IL-2Rβ)": 3}, {"binder": "B18", "Fold change from hIL-2 (TF1 + IL-2Rβ)": 5}]}]}
